From PubChem BioAssay AID1030 (National Center for Advancing Translational Sciences (NCATS), 2008)
The whole screen tested about 220,000 compounds, of which about 16,000 (7.3%) were called active. This list was built around the results that the source calls inconclusive (neither active nor inactive); the mix of calls is not that of the screen. The call rests on the fitted dose curve; in most records, active means well fitted inhibition curve with a large enough effect (not every such curve was filed as active); inconclusive means small, poorly fitted or top-dose-only effect, or another doubt; inactive means no such curve, though single readings can be large or run the other way. No potency is given beside an inconclusive call; the fits are too rough.

Target: Aldehyde dehydrogenase 1A1 (Homo sapiens) (UniProt P00352)
Chain of UniProt P00352 (P00352 whole entry, looked up): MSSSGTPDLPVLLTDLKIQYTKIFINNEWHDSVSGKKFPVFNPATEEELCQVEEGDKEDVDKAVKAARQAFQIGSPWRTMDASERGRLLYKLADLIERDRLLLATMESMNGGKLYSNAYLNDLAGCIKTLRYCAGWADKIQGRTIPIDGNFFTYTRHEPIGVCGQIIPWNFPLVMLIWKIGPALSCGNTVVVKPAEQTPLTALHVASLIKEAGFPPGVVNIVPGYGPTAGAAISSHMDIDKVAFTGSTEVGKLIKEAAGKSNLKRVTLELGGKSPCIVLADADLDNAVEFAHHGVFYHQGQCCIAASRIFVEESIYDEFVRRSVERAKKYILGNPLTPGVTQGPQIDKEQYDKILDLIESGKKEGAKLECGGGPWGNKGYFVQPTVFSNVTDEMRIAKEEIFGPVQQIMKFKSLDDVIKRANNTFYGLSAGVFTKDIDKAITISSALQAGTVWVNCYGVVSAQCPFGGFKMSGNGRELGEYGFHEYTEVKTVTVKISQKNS
Assay: qHTS Assay for Inhibitors of Aldehyde Dehydrogenase 1 (ALDH1A1);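 on activity, negative = inhibition: plate controls were no enzyme wells and a reference inhibitor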
Conditions: Purified ALDH1A1, NADH fluorescence, propionaldehyde substrate; series mostly up to 75.3 µM
Potency means the concentration at half of the fitted maximal effect; tags describe the fitted curve by direction and shape.

SMILES | Potency | activity, negative = inhibition
O=C(NC(=S)NCc1ccccc1)c1ccccc1F | active: 31.6 µM | 
O=C(COc1ccc(S(=O)(=O)NC2CCCCC2)cc1)NC1CCCC1 | inactive | 
O=C(CSc1nc2c([nH]c3ccccc32)c(=O)n1-c1ccccc1)N1CCOCC1 | active: 2.51 µM | 
O=C(Nc1ncc(Cc2ccccc2Cl)s1)C1CCCO1 (stereo unspecified) | inactive | 
Cc1cc(C)nc(SCC(=O)Nc2ccnc3ccccc23)n1 | inactive | 
NS(=O)(=O)c1ccc(NC(=S)Nc2ccc(C(=O)N3CCCCC3)cc2)cc1 | active: 17.8 µM | 
CC(C)CC1CCCCC1OC(=O)CN1CCCCC1 (stereo unspecified) | inconclusive [inhibitor, single point] | 
O=C(c1ccccc1)N1CCN(C(=S)NCCc2ccccc2)CC1 | inconclusive [inhibitor, partial curve] | 
O=C1c2ccccc2C(=O)N1CC1c2ccccc2CCN1C(=O)C1CCCCC1 (stereo unspecified) | inconclusive [inhibitor, partial curve] | 
Cc1ccc(C)c(N2CCN(C(=O)C3CCN(c4nnc(N5CCCC5=O)s4)CC3)CC2)c1 | inconclusive [inhibitor, partial curve] | 
COC(=O)c1sc2nc3c(c(-c4cccs4)c2c1N)CCCC3 | inconclusive [inhibitor, partial curve] | 
Cc1csc(NC(=O)c2ccoc2C)n1 | inconclusive [inhibitor, single point] | 
CCOC(=O)c1sc(NC(=O)CSc2nccc(C)n2)c(C#N)c1C | inactive | 
CCOc1ccc(-c2nc(-c3cccs3)c(CC(=O)O)s2)cc1OC | inconclusive [inhibitor, partial curve] | 
O=C(NCc1ccc(F)cc1)c1cnn2ccccc12 | inconclusive [inhibitor, single point] | 
O=C(NCc1cccnc1)/C(=C\c1ccc(-c2ccc(Br)cc2)o1)S(=O)(=O)c1ccccc1 | active: 3.55 µM | 
CCCNC(=O)CNC(=S)N(Cc1ccccc1F)C1CCCCC1 | active: 10 µM | 
Nc1nc(CSc2ccc(Cl)cc2)nc(N2CCCCC2)n1 | inconclusive [inhibitor, single point] | 
CCCCn1nnc(NC(=O)c2ccc(-c3cccc([N+](=O)[O-])c3)o2)n1 | inconclusive [inhibitor, single point] | 
CCCCCCCNC(=O)C1CC(=O)N(C)C(=Nc2ccc(OC)cc2)S1 (stereo unspecified) | inactive | 
Cc1c(/C=N\NC(=O)c2cc3ccccc3o2)c2ccccc2n1C | inactive | 
COc1ccc(S(=O)(=O)N2CCC(C(=O)N3CCc4ccccc4C3)CC2)cc1Cl | inconclusive [inhibitor, full curve] | 
O=C(NCc1ccc(F)cc1)c1ccc(CS(=O)(=O)Cc2ccccc2F)o1 | active: 12.6 µM | 
Cn1c(/C(C#N)=C(\O)c2ccc(S(=O)(=O)N3CCCCC3)cc2)nc2ccccc21 | inconclusive [inhibitor, single point] | 

SMILES | Potency | activity, negative = inhibition
CC(C)Cn1cc(C(=O)N2CCC(C)CC2)c2c3ccccc3n(C)c2c1=O | inconclusive [inhibitor, partial curve] | 
CCn1nc(C(=O)NNC(=O)COc2ccccc2C)c2ccccc2c1=O | inactive | 
CC(=O)c1cccc(NC(=S)NCCC2=CCCCC2)c1 | inconclusive [inhibitor, partial curve] | 
O=C(CCc1nnc(-c2ccc(-c3ccccc3)cc2)o1)N1CCCCC1 | inconclusive [inhibitor, partial curve] | 
O=C1C(c2c(O)[nH]c3ccccc23)=Nc2ccccc21 | inactive | 
CCC(OC(=O)CC1Sc2ccccc2NC1=O)C(=O)NCC1CCCO1 (stereo unspecified) | inconclusive [inhibitor, single point] | 
CC(C)(C)n1nnnc1C(c1cccs1)N(Cc1ccccc1)Cc1ccco1 (stereo unspecified) | inconclusive [inhibitor, single point] | 
COc1c(C)cc(Br)cc1C(=O)Nc1cccc(-c2nc3ncccc3o2)c1 | inconclusive [inhibitor, single point] | 
O=C1CSC(=Nc2ccccc2)N1Cc1ccccc1 | inactive | 
C#CCN1C(=O)C(O)(CC(=O)c2cc(OC)ccc2OC)c2ccccc21 (stereo unspecified) | active: 3.55 µM | 
O=C(O)c1ccc(NS(=O)(=O)/C=C/c2ccccc2)cc1O | active: 10 µM | 
CC[C@@]1([N+](=O)[O-])C[C@H]2C=C[C@@H]1C2 |  | inactive: 10.1% [at 13.5 µM]
Cc1cccc(C)c1OCc1nnc(SCC(=O)Nc2ccccc2F)o1 | inconclusive [inhibitor, single point] | 
CCOCCCNC(=S)N1CCN(Cc2ccc3c(c2)OCO3)CC1 | inconclusive [inhibitor, single point] | 
COc1ccc(OCCC(=O)OCC(=O)NCCC2=CCCCC2)cc1 | active: 12.6 µM | 
O=C(CN1CCN(c2ccccn2)CC1)N1c2ccccc2Sc2ccc(C(F)(F)F)cc21 | active: 7.94 µM | 
CCC1(C)Cc2ccccc2-c2nc(NCCO)n(-c3ccc(C)cc3)c(=O)c21 (stereo unspecified) | inconclusive [inhibitor, partial curve] | 
NS(=O)(=O)c1ccc(CCNC(=O)C(=O)c2c[nH]c3ccccc23)cc1 | inactive | 
O=[N+]([O-])c1ccccc1S(=O)(=O)N1CCN(CC2CC=CCC2)CC1 (stereo unspecified) | active: 14.1 µM | 
CCn1c(SC)nc(O)c(C(c2ccc(OC)c(O)c2)c2c(O)nc(SC)n(CC)c2=O)c1=O | inconclusive [inhibitor, single point] | 
CCOC(=O)CCN1C(=O)[C@H]2[C@H]3[C@H](O)[C@H](O)C/C(=N/NC(=O)OCC)[C@H]3CC[C@@H]2C1=O |  | inactive: 5.03% [at 13.5 µM]
O=[N+]([O-])c1cc(-c2nnc(Nc3ccccc3)c3ccccc23)ccc1N1CCOCC1 | inconclusive [inhibitor, single point] | 
CC1=CCC(COC(=O)Nc2ccccc2)CC1 (stereo unspecified) | inconclusive [inhibitor, single point] | 
Cc1cc(C(=O)NNC(=O)CCCCC(=O)NNC(=O)c2cc(C)[nH]n2)n[nH]1 | inactive | 

SMILES | Potency | activity, negative = inhibition
O=C(NCCc1c[nH]c2ccccc12)C1CCN(c2nnc(N3CCCC3=O)s2)CC1 | active: 0.316 µM | 
CC(C)(C)CC(C)(C)NC(=S)Nc1ccc(S(=O)(=O)N2CCOCC2)cc1 | inconclusive [inhibitor, single point] | 
C=CCOn1c(=O)c(-c2ccccc2)[n+]([O-])c2ccccc21 | inconclusive [inhibitor, partial curve] | 
COCCn1c(=O)c(-c2cccs2)nc2cnc(N3CCNCC3)nc21 | inconclusive [inhibitor, partial curve] | 
COc1ccc(C(=O)N2CC3(C)C4CCC3(C)C2(C#N)C4)cc1OC (stereo unspecified) | inconclusive [inhibitor, single point] | 
Cc1ccc2c(c1)c1ncnc(N3CCOCC3)c1n2C | inconclusive [inhibitor, partial curve] | 
COC(=O)c1ccccc1NC(=S)N1CCC(N2CCCCC2)CC1 | inactive | 
Cn1c(=O)c2nc(-c3ccc(Cl)cc3Cl)oc2c2ccccc21 | inconclusive [inhibitor, partial curve] | 
Cc1ccc(S(=O)(=O)N(CC(=O)O)c2ccc(Cl)cc2)cc1 | inactive | 
CCOC(=O)c1ccc(N/C=C\C(=O)c2cccc(OC)c2)cc1 | inconclusive [inhibitor, single point] | 
C=CCn1c(O)c(N=NC(=S)Nc2ccccc2F)c2cc(S(=O)(=O)N3CCOCC3)ccc21 | inconclusive [inhibitor, partial curve] | 
Cc1cccn2c(NCc3ccc4c(c3)OCO4)c(-c3ccc(O)cc3)nc12 | inconclusive [inhibitor, partial curve] | 
COc1cc(/C=N/OCC(=O)Nc2cc(C)cc(C)c2)ccc1OCc1ccc(Cl)cc1 | inconclusive [inhibitor, single point] | 
Cc1cccn2c(=O)c3cc(C(=O)NCCCN4CCCC4=O)n(C)c3nc12 | inconclusive [inhibitor, partial curve] | 
CC(C)CC(=O)Nc1ccc(N2CCOCC2)cc1 | inconclusive [inhibitor, single point] | 
COc1ccc(CNc2cc(-c3cccnc3)ncn2)c(OC)c1 | inactive | 
COC(=O)c1ccccc1NC(=O)NC1CCC(C)CC1 (stereo unspecified) | inconclusive [inhibitor, single point] | 
C=CCN(CC=C)CC(O)Cn1c2ccccc2c2ccccc21 (stereo unspecified) | inconclusive [inhibitor, single point] | 
CCCCNC(=O)C(c1ccc(OCC(=O)OC)c(C(=O)OC)c1)N(CCc1ccccc1)C(=O)CCCCCN1C(=O)NC(c2ccc(-c3ccccc3)cc2)C(C(=O)OCc2ccccc2)=C1C (stereo unspecified) | inactive | 
COc1cc(OC)cc(C(=O)NCC(=O)OCc2cc(=O)oc3cc(OC)ccc23)c1 | inconclusive [inhibitor, single point] | 
COC(=O)c1sc2ccccc2c1NC(=O)c1ccc(S(=O)(=O)N2CCCCC2C)cc1 (stereo unspecified) | inconclusive [inhibitor, single point] | 
O=C(NCc1ccco1)c1cnn2c1NC(c1ccccc1)CC2C(F)(F)F (stereo unspecified) | inactive | 
COC(=O)c1cc(OC)c(OC)cc1NC(=O)c1ccc(C)o1 | inconclusive [inhibitor, single point] | 
